From the supplement of paper PMC4967469
Lines with a small IC50 respond at low doses; where the fit passes the top or lowest dose, that dose stands as a limit. For AUC the same curve is integrated over the 256-fold range of doses and scaled to a fraction; the more sensitive the line, the further below 1. For some of these results: A top dose marked as inferred is not printed in the source and was worked back from the curve model. For some of these results: Drugs with an entry number were screened twice under separate entries, and the two screens often disagree.

Key:
Assay in all cases: Viability of human cancer cell lines after 72 h of drug (GDSC screen)
[1] = compound: C/C=C(/C)C(=O)O[C@H]1C(C)=C2[C@H]([C@@H]1OC(=O)CCCCCCC)[C@@](C)(OC(C)=O)C[C@H](OC(=O)CCC)[C@@]1(O)[C@H]2OC(=O)[C@@]1(C)O [Thapsigargin]; settings: top dose 0.512 µM; top dose inferred
Procedure: (§1)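 Human cancer cell lines in 384-well plates, medium with 10% serum, drug for 72 h over a 256-fold dose range (nine 2-fold or five 4-fold steps up to the top dose). Adherent lines were fixed and stained with the nucleic acid dye Syto60, suspension lines read with resazurin; signal relative to control wells, capped at 0 and 100%. One two-parameter sigmoid per drug and line, fitted in a mixed model over all curves with the slope shared within a line.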

[2] = compound: C=CC(=O)Nc1cc(-n2c(=O)ccc3cnc4ccc(-c5cn[nH]c5)cc4c32)ccc1C [QL-X-138]; settings: top dose 10.24 µM; top dose inferred
Procedure: as §1

[3] = compound: CCn1c(-c2nonc2N)nc2cnc(Oc3cccc(NC(=O)c4ccc(OCCN5CCOCC5)cc4)c3)cc21 [GSK269962A]; settings: top dose inferred
Procedure: as §1

[4] = compound: COc1cc(N2CCC(O)CC2)ccc1Nc1cc(Nc2ccccc2S(=O)(=O)C(C)C)c2cc[nH]c2n1 [MPS-1-IN-1]; settings: top dose 20 µM; top dose inferred
Procedure: as §1

[5] = compound: COc1cc(O)c2c(c1)/C=C/C[C@H](O)[C@H](O)C(=O)/C=C\C[C@H](C)OC2=O [(5Z)-7-Oxozeaenol]; settings: top dose 10 µM; top dose inferred
Procedure: as §1

[6] = compound: COc1cc2ncnc(-n3nc(-c4ccccn4)nc3N)c2cc1OC [CP466722]; settings: top dose 16 µM; top dose inferred
Procedure: as §1

[7] = compound: COc1nc(C)cnc1NS(=O)(=O)c1cccnc1-c1ccc(-c2nnco2)cc1 [Zibotentan]; settings: top dose 20 µM; top dose inferred
Procedure: as §1

[8] = compound: C[C@]1(c2nc3c(C(N)=O)cccc3[nH]2)CCCN1 [ABT-888]; settings: top dose 5 µM; top dose inferred
Procedure: as §1

[9] = compound: Cc1ccc(-c2c(C(=O)CCl)n(CCCO)c3ncnc(N)c23)cc1 [CMK]; settings: top dose 4 µM; top dose inferred
Procedure: as §1

[10] = compound: Cc1ccc(F)c(NC(=O)Nc2ccc(-c3cccc4[nH]nc(N)c34)cc2)c1 [ABT-869]; settings: top dose 1.024 µM; top dose inferred
Procedure: as §1

[11] = compound: Cc1cnc(-c2cnc(NCCNc3ccc(C#N)cn3)nc2-c2ccc(Cl)cc2Cl)[nH]1 [CHIR-99021]
Procedure: as §1

[12] = compound: O=c1cc(-c2cccc3c2Sc2ccccc2S3)oc(N2CCOCC2)c1 [KU-55933]; settings: top dose 10 µM
Procedure: as §1

[13] = top dose 2.5 µM, screen: GDSC drug entry 127
[14] = top dose 5 µM, screen: GDSC drug entry 1192
[15] = top dose 2.56 µM, screen: GDSC drug entry 154
[16] = top dose 10 µM, screen: GDSC drug entry 1241, top dose inferred

| Cell Line | AUC [1] | IC50 [1] | AUC [2] | IC50 [2] | AUC [3, 13] | IC50 [3, 13] | AUC [3, 14] | IC50 [3, 14] | AUC [4] | IC50 [4] | AUC [5] | IC50 [5] | AUC [6] | IC50 [6] | AUC [7] | IC50 [7] | AUC [8] | IC50 [8] | AUC [9] | IC50 [9] | AUC [10] | IC50 [10] | AUC [11, 15] | IC50 [11, 15] | AUC [11, 16] | IC50 [11, 16] | AUC [12] | IC50 [12] |
| --- | --- | --- | --- | --- | --- | --- | --- | --- | --- | --- | --- | --- | --- | --- | --- | --- | --- | --- | --- | --- | --- | --- | --- | --- | --- | --- | --- | --- |
| SJSA-1 (bone, adherent) | 0.363 | 0.0127 µM | 0.656 | 1.84 µM | 0.797 | 1.36 µM | 0.928 | > 5 µM | 0.87 | > 20 µM | 0.707 | 2.6 µM | 0.859 | > 16 µM | 0.982 | > 20 µM | 0.968 | > 5 µM | 0.94 | > 4 µM | 0.979 | > 1.02 µM | 0.982 | > 2.56 µM | 0.982 | > 10 µM | 0.971 | > 10 µM |
| SK-LMS-1 (soft tissue, adherent) | 0.157 | 0.00305 µM | 0.653 | 1.66 µM | 0.886 | > 2.5 µM | 0.654 | 0.818 µM | 0.896 | > 20 µM | 0.428 | 0.4 µM | 0.776 | 6.06 µM | 0.985 | > 20 µM | 0.974 | > 5 µM | 0.767 | 1.42 µM | 0.987 | > 1.02 µM | 0.799 | 1.16 µM | 0.765 | 3.48 µM | 0.885 | > 10 µM |
| SK-MEL-2 (melanoma, adherent) | 0.209 | 0.00426 µM | 0.808 | 5.54 µM | 0.978 | > 2.5 µM | 0.911 | > 5 µM | 0.987 | > 20 µM | 0.354 | 0.243 µM | 0.844 | 12.1 µM | 0.985 | > 20 µM | 0.976 | > 5 µM | 0.869 | 3.95 µM | 0.984 | > 1.02 µM | 0.925 | > 2.56 µM | 0.892 | > 10 µM | 0.974 | > 10 µM |
| SK-UT-1 (soft tissue, adherent) | 0.352 | 0.013 µM | 0.756 | 3.21 µM | 0.874 | 2.07 µM | 0.898 | > 5 µM | 0.989 | > 20 µM | 0.575 | 0.983 µM | 0.904 | > 16 µM | 0.989 | > 20 µM | 0.976 | > 5 µM | 0.864 | 2.99 µM | 0.989 | > 1.02 µM | 0.966 | > 2.56 µM | 0.943 | > 10 µM | 0.939 | > 10 µM |
